Reference: paper PMC5669876
Results are given in words; binding and its absence hold for the method and conditions named. In cells and extracts the contact can be indirect. Some results given as binding are weak or reduced against the parent protein; the word gives no strength. Values belong to the substance of their own block, whether it stands above or below them.

By UniProt entry, the sequences of proteins in these tests, tags left out. Where a name states a change or a piece, a line headed by the entry shows the natural chain unless it says otherwise.
UniProt Q00987: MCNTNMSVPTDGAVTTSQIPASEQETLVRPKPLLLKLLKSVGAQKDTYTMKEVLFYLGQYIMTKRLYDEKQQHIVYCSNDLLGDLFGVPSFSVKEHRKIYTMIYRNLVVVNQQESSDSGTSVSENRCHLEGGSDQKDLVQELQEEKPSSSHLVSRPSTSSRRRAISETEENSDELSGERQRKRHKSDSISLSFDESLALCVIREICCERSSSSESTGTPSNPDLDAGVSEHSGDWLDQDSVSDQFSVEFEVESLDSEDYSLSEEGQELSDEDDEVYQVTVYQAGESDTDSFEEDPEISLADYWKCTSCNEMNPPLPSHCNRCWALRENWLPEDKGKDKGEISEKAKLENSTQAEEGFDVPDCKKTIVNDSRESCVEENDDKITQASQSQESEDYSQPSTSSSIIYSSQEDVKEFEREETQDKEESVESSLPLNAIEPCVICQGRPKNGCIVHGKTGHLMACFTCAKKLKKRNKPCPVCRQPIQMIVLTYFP
UniProt P0DMV8: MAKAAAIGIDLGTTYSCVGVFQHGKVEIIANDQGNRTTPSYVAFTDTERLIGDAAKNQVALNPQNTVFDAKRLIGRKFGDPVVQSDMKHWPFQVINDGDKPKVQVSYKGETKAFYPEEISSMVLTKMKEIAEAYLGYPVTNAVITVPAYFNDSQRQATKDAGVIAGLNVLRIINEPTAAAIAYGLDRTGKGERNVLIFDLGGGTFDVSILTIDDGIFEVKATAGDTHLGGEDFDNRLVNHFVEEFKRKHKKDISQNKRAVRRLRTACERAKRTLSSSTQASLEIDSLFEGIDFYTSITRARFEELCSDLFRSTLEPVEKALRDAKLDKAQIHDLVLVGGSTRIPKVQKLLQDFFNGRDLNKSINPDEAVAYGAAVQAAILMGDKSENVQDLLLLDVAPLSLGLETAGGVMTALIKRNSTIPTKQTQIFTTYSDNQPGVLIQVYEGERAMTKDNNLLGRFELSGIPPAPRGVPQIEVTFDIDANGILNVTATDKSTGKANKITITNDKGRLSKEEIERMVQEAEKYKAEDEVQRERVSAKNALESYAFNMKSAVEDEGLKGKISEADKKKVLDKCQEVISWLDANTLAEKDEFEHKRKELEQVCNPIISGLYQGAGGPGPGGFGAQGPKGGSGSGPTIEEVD

Assays:
[1] = target: endogenous MDM2 (SKBR3) (human (endogenous in SKBR3)) (UniProt Q00987); assay: co-IP; two step Co-IP from SKBR3 cells (endogenous p53 R175H and MDM2) transfected with TAp73α; DSP cross-linking; first IP anti-p53, second IP anti-MDM2
HA-HSP70 WT [2] = target: HA-HSP70 WT (UniProt P0DMV8); assay: co-IP; H1299 cells transfected with p53 R175H, TAp73α and HA-HSP70 WT/K71S/D10S (in one panel also HSP40 siRNA); HA-HSP70 immunoprecipitated with anti-HA antibody; Western blot
HA-HSP70 K71S = HA-HSP70 K71S (UniProt P0DMV8); assay: as above
HA-HSP70 D10S = HA-HSP70 D10S (UniProt P0DMV8); assay: as above
MDM2 (ectopic, H1299) = MDM2 (ectopic, H1299) (UniProt Q00987); assay: co-IP; two step Co-IP from transfected H1299 cells; cellular proteins cross-linked with 1 mM DSP; first IP anti-p53, elution with 100 mM glycine pH 2.5, second IP anti-HA or anti-MDM2; cross-links reversed with DTT; Western blot
HA-HSP70 WT [3] = target: HA-HSP70 WT (UniProt P0DMV8); assay: as above
[4] = target: T1, endogenous TAp73α (SKBR3) (human (endogenous in SKBR3)) (UniProt O15350); assay: co-IP; endogenous proteins of SKBR3 cell lysates; IP with anti-p73 antibody
T1 sequence: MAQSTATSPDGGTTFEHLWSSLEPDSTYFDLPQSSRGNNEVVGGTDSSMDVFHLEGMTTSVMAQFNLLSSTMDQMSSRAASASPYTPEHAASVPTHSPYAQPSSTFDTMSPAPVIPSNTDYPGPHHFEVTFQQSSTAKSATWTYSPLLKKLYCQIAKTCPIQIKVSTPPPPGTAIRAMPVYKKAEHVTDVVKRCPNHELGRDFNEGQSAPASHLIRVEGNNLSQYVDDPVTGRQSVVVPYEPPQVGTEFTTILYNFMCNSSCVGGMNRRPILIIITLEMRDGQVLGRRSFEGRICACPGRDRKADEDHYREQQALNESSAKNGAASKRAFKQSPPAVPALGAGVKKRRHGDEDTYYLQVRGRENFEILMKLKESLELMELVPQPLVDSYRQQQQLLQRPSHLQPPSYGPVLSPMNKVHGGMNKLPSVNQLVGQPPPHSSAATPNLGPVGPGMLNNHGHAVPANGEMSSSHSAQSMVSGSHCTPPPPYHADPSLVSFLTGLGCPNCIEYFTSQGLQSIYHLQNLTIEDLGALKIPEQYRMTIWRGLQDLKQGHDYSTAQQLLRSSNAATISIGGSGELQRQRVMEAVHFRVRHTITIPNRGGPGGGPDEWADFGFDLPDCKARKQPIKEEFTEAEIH

binding [1]: binds
Substance: TAp73α (ectopic, SKBR3) (from UniProt O15350 1-636)

binding (HA-HSP70 WT [2]): binds
binding (HA-HSP70 K71S): binds
binding (HA-HSP70 D10S): no binding
binding (MDM2 (ectopic, H1299)): binds
binding (HA-HSP70 WT [3]): binds
Substance: TAp73α (from UniProt O15350 1-636)

binding [4]: binds
Substance: endogenous MDM2 (SKBR3) (from UniProt Q00987 1-491)
